Source: the supplement of paper PMC8728848
Some of the results follow.

Columns and labels:
Experiment in all cases: glycan array binding signal (z-score within array); higher = stronger binding
Details in all cases: glycan notation: IUPAC condensed, linker removed
[1] = target: Neu5Ac(a2-3)Gal(b1-4)GlcNAc
Method in brief: (§1)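 The binding signal is a Z-score computed within each array and averaged over linkers. Arrays of the same protein sequence at different concentrations or buffers were also averaged together. Data originate from 3228 arrays in the Consortium for Functional Glycomics database, kept only where the protein sequence was available.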

[2] = target: Neu5Ac(a2-3)Gal(b1-4)GlcNAc(b1-3)Gal(b1-4)GlcNAc
Method in brief: as §1

[3] = target: Neu5Ac(a2-3)Gal(b1-4)GlcNAc(b1-3)Gal(b1-4)GlcNAc(b1-3)Gal(b1-4)GlcNAc
Method in brief: as §1

[4] = target: Neu5Ac(a2-3)Gal(b1-4)GlcNAc(b1-3)Gal(b1-4)[Fuc(a1-3)]GlcNAc
Method in brief: as §1

[5] = target: Neu5Ac(a2-3)Gal(b1-4)GlcNAc6S
Method in brief: as §1

[6] = target: Neu5Ac(a2-3)Gal(b1-4)[Fuc(a1-3)]GlcNAc
Method in brief: as §1

[7] = target: Neu5Ac(a2-3)Gal(b1-4)[Fuc(a1-3)]GlcNAc(b1-3)Gal
Method in brief: as §1

[8] = target: Neu5Ac(a2-3)Gal(b1-4)[Fuc(a1-3)]GlcNAc(b1-3)Gal(b1-4)GlcNAc
Method in brief: as §1

[9] = target: Neu5Ac(a2-3)Gal(b1-4)[Fuc(a1-3)]GlcNAc(b1-3)Gal(b1-4)[Fuc(a1-3)]GlcNAc(b1-3)Gal(b1-4)[Fuc(a1-3)]GlcNAc
Method in brief: as §1

[10] = target: Neu5Ac(a2-3)Gal(b1-4)[Fuc(a1-3)]GlcNAc6S
Method in brief: as §1

[11] = target: Neu5Ac(a2-3)Gal6S(b1-4)GlcNAc
Method in brief: as §1

[12] = target: Neu5Ac(a2-3)Gal6S(b1-4)[Fuc(a1-3)]GlcNAc
Method in brief: as §1

Neu5Ac(a2-3)GalNAc = target: Neu5Ac(a2-3)GalNAc
Method in brief: as §1

[13] = target: Neu5Ac(a2-3)GalNAc(b1-4)GlcNAc
Method in brief: as §1

[14] = target: Neu5Ac(a2-3)[GalNAc(b1-4)]Gal(b1-4)Glc
Method in brief: as §1

[15] = target: Neu5Ac(a2-3)[GalNAc(b1-4)]Gal(b1-4)GlcNAc
Method in brief: as §1

[16] = target: Neu5Ac(a2-3)[Neu5Ac(a2-6)]GalNAc
Method in brief: as §1

[17] = target: Neu5Ac(a2-6)Gal(b1-4)GlcNAc
Method in brief: as §1

[18] = target: Neu5Ac(a2-6)Gal(b1-4)GlcNAc(b1-2)Man(a1-3)[Neu5Ac(a2-6)Gal(b1-4)GlcNAc(b1-2)Man(a1-6)]Man(b1-4)GlcNAc(b1-4)GlcNAc
Method in brief: as §1

[19] = target: Neu5Ac(a2-6)Gal(b1-4)GlcNAc(b1-3)Gal(b1-4)GlcNAc
Method in brief: as §1

[20] = target: Neu5Ac(a2-6)Gal(b1-4)GlcNAc(b1-3)Gal(b1-4)[Fuc(a1-3)]GlcNAc(b1-3)Gal(b1-4)[Fuc(a1-3)]GlcNAc
Method in brief: as §1

[21] = target: Neu5Ac(a2-6)Gal(b1-4)GlcNAc6S
Method in brief: as §1

Neu5Ac(a2-6)GalNAc = target: Neu5Ac(a2-6)GalNAc
Method in brief: as §1

[22] = target: Neu5Ac(a2-6)GalNAc(b1-4)GlcNAc
Method in brief: as §1

Neu5Ac(a2-8)Neu5Ac = target: Neu5Ac(a2-8)Neu5Ac
Method in brief: as §1

[23] = target: Neu5Ac(a2-8)Neu5Ac(a2-3)Gal(b1-4)Glc
Method in brief: as §1

[24] = target: Neu5Ac(a2-8)Neu5Ac(a2-3)[GalNAc(b1-4)]Gal(b1-4)Glc
Method in brief: as §1

[25] = target: Neu5Ac(a2-8)Neu5Ac(a2-8)Neu5Ac
Method in brief: as §1

[26] = target: Neu5Ac(a2-8)Neu5Ac(a2-8)Neu5Ac(a2-3)Gal(b1-4)Glc
Method in brief: as §1

[27] = target: Neu5Ac(a2-8)Neu5Ac(a2-8)Neu5Ac(a2-3)[GalNAc(b1-4)]Gal(b1-4)Glc
Method in brief: as §1

[28] = target: Neu5Ac(a2-8)Neu5Ac(a2-8)Neu5Ac(a2-8)Neu5Ac(a2-3)[GalNAc(b1-4)]Gal(b1-4)Glc
Method in brief: as §1

[29] = target: Neu5Ac9Ac(a2-6)Gal(b1-4)GlcNAc
Method in brief: as §1

[30] = target: Neu5Gc(a2-3)Gal(b1-3)GlcNAc
Method in brief: as §1

[31] = target: Neu5Gc(a2-3)Gal(b1-3)[Fuc(a1-4)]GlcNAc
Method in brief: as §1

Neu5Gc(a2-3)Gal(b1-4)Glc = target: Neu5Gc(a2-3)Gal(b1-4)Glc
Method in brief: as §1

[32] = target: Neu5Gc(a2-3)Gal(b1-4)GlcNAc
Method in brief: as §1

[33] = target: Neu5Gc(a2-3)Gal(b1-4)[Fuc(a1-4)]GlcNAc
Method in brief: as §1

[34] = target: Neu5Gc(a2-6)Gal(b1-4)GlcNAc
Method in brief: as §1

Neu5Gc(a2-6)GalNAc = target: Neu5Gc(a2-6)GalNAc
Method in brief: as §1

B1: EcCDA (Encephalitazoon cuniculi), Q8SU65 (protein)
chain: MLLCLLYFTSSWCSGSDVPDVCTNSGMIAINFVDGPVRGVTDRILNTLDELGVKATFSFTVNQKAVGNVGQLYRRAVEEGHNVALRVDPSMDEGYQCLSQDALENNVDREIDTIDGLSGTEIRYAAVPICNGQVNSEMYNILTERGVLPVGYTFCPYDYDDPVGEFESMIEGSDPKHHSFIILMHDGQEADTSRLENMVKIGKDKGYRFVNMDECLQGYKGAPGDPELSLRGKGVESIGKGFLPFFLMMLVRLL
glycan array binding signal (z-score) [1]: -0.309
glycan array binding signal (z-score) [2]: -0.328
glycan array binding signal (z-score) [3]: 0.109
glycan array binding signal (z-score) [4]: -0.234
glycan array binding signal (z-score) [5]: -0.284
glycan array binding signal (z-score) [6]: -0.337
glycan array binding signal (z-score) [7]: -0.446
glycan array binding signal (z-score) [8]: -0.356
glycan array binding signal (z-score) [9]: -0.308
glycan array binding signal (z-score) [10]: -0.353
glycan array binding signal (z-score) [11]: 1.02
glycan array binding signal (z-score) [12]: -0.462
glycan array binding signal (z-score) (Neu5Ac(a2-3)GalNAc): 0.071
glycan array binding signal (z-score) [13]: 0.134
glycan array binding signal (z-score) [14]: -0.498
glycan array binding signal (z-score) [15]: 0.219
glycan array binding signal (z-score) [16]: -0.301
glycan array binding signal (z-score) [17]: -0.235
glycan array binding signal (z-score) [18]: -0.02
glycan array binding signal (z-score) [19]: -0.269
glycan array binding signal (z-score) [20]: -0.36
glycan array binding signal (z-score) [21]: -0.394
glycan array binding signal (z-score) (Neu5Ac(a2-6)GalNAc): -0.425
glycan array binding signal (z-score) [22]: -0.269
glycan array binding signal (z-score) (Neu5Ac(a2-8)Neu5Ac): -0.391
glycan array binding signal (z-score) [23]: -0.422
glycan array binding signal (z-score) [24]: -0.205
glycan array binding signal (z-score) [25]: -0.328
glycan array binding signal (z-score) [26]: -0.326
glycan array binding signal (z-score) [27]: -0.475
glycan array binding signal (z-score) [28]: -0.315
glycan array binding signal (z-score) [29]: 4.58
glycan array binding signal (z-score) [30]: -0.33
glycan array binding signal (z-score) [31]: -0.384
glycan array binding signal (z-score) (Neu5Gc(a2-3)Gal(b1-4)Glc): -0.262
glycan array binding signal (z-score) [32]: -0.323
glycan array binding signal (z-score) [33]: -0.242
glycan array binding signal (z-score) [34]: -0.403
glycan array binding signal (z-score) (Neu5Gc(a2-6)GalNAc): -0.188
